# According to PubChem BioAssay AID1745845 (National Center for Advancing Translational Sciences (NCATS), 2022):
# About 2,600 (0.72%) of roughly 360,000 compounds were called active. Inconclusive means that the source gave no clear call. Such entries were picked first, then a sample of the others. Calls come from the whole dose curve; as a rule, active = well fitted inhibition curve with a large enough effect; inconclusive = small, poorly fitted or top-dose-only effect; inactive = no such curve, though single readings can be large or run the other way. Potencies beside an inconclusive call are fits to weak or partial responses and may not hold up.
# Experiment: Primary qHTS for Inhibitors of ATXN expression; note: nearly all actives have a fitted effect of over 55% in size
# Conditions: HEK-293 ATXN2-luciferase reporter, luminescence, 24 h; series mostly up to 57 µM
# Outline: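 ATXN2-luciferase reporter cells (luciferase flanked by upstream and downstream ATXN2 gene portions) were treated 24 h at 37 °C with compounds at up to 57 uM. SteadyGlo luminescence gave expression; GF-AFC fluorescence gave viability.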
# Potency is the fitted concentration of half-maximal effect; tags give direction and shape of the fitted curve.
row,SMILES,Potency
1,COC(=O)c1ccc(C)c(NC(=O)c2ccc(CN3CCc4ccccc4C3)cc2)c1,"inconclusive: 7.52 µM [inhibitor, single point]"
2,COC(=O)c1[nH]c2cccc(OC)c2c1NC(=O)CN1CCN(c2cccc(OC)c2)C(C)C1 (stereo not given),inactive
3,Cc1noc(C)c1NC(=O)N(C)C[C@H]1Oc2ccc(NC(=O)CCC(F)(F)F)cc2C(=O)N([C@H](C)CO)C[C@@H]1C,inactive
4,COc1ccc(-c2sc3cc4c(cc3c2C#Cc2ccc(N)cc2)OCO4)cc1,"inconclusive: 39.8 µM [inhibitor, single point]"
5,Cc1ccc(COC(=O)c2ccc(-c3nnn(Cc4ccc(C)cc4)n3)cc2)cc1,inactive
6,CCCn1nnnc1NC(=O)c1ccc2ccccc2c1,"inconclusive: 39.8 µM [inhibitor, single point]"
7,COc1ccc(NC(=S)N2CCN(CCN3C(=O)c4cccc5cccc(c45)C3=O)CC2)cc1,"inconclusive: 21.2 µM [inhibitor, partial curve, poor fit]"
8,COc1cc(NS(=O)(=O)c2ccc(Nc3nc(-c4ccccc4)cs3)cc2)nc(OC)n1,inactive
9,O=C(CS(=O)(=O)c1ccccc1)Nc1ccc(S(=O)(=O)Nc2ncccn2)cc1,"inconclusive: 4.74 µM [inhibitor, partial curve, poor fit]"
10,CCN(CC)S(=O)(=O)c1ccc(N2CCN(C)CC2)c(NC(=O)COc2ccc(F)cc2Cl)c1,inactive
11,Cc1cc2oc3c(c(=O)c2cc1C)C(c1cccc(Br)c1)N(Cc1ccco1)C3=O (stereo not given),"inconclusive: 39.8 µM [inhibitor, single point]"
12,Cc1cccc(-c2sc(Nc3ccccc3)n[n+]2-c2ccc(F)cc2)c1,inactive
13,Oc1ccc(CCNc2ncnc3ccc(Cl)cc23)cc1,inactive
14,CCCC1=Nc2cc(C(=O)NCCN3CCCC3)ccc2Sc2ccccc21,"inconclusive: 14.1 µM [inhibitor, partial curve, poor fit]"
15,Cc1cccc(NC(=O)c2cc3c(C)nn(-c4ccccc4)c3s2)c1,"inconclusive: 39.8 µM [inhibitor, single point]"
16,O=C(CSc1nc2ccccc2n1CC(=O)N1CCCC1)N1CCN(C(=O)c2ccco2)CC1,inactive
17,CCOc1ccc2[nH]c(=O)c(CN(Cc3cccs3)Cc3nnnn3C(C)(C)CC)cc2c1,"inconclusive: 39.8 µM [inhibitor, single point]"
18,CCc1ccc(S(=O)(=O)Nc2ccc3oc(C)c(C(=O)OCCOC)c3c2)cc1,inactive
19,CCN1CCN(c2ccc(S(=O)(=O)N3CCCCC3)cc2NC(=O)c2ccc([N+](=O)[O-])o2)CC1,"inconclusive: 39.8 µM [inhibitor, single point]"
20,COc1ccc(C(=O)c2no[n+]([O-])c2C(=O)c2ccc(OC)cc2)cc1,"inconclusive: 39.8 µM [inhibitor, single point]"
21,CCN1CCN(CC(O)COCc2ccccc2)CC1 (stereo not given),inactive
22,O=C(CSc1nnnn1-c1ccc(O)cc1)Nc1ccc(N2CCOCC2)c(Cl)c1,"inconclusive: 35.5 µM [inhibitor, partial curve, poor fit]"

row,SMILES,Potency
1,CCN1C(=O)c2ccccc2S(=O)c2ccc(C(=O)N3CCN(c4cccc(Cl)c4)CC3)cc21 (stereo not given),inactive
2,CCC(C)(C)n1nnnc1C(CC(C)C)N1CCC(C(N)=O)CC1 (stereo not given),inactive
3,COc1ccc(CP(=O)(c2ccccc2)c2ccccc2)cc1,inactive
4,CN(CCc1ccccc1)C(=O)c1cccc(NC(=O)Cc2cccc([N+](=O)[O-])c2)c1,inactive
5,Cc1ccc(NS(=O)(=O)c2ccc3[nH]c4c(c3c2)CCCC4)c(C)c1,"inconclusive: 39.8 µM [inhibitor, single point]"
6,CN(C)Cc1ccccc1Sc1cccc2ccccc12,"inconclusive: 7.94 µM [inhibitor, partial curve, poor fit]"
7,Cc1ccc(-c2nc3ccccn3c2Nc2c(C)cccc2C)o1,"inconclusive: 39.8 µM [inhibitor, partial curve, poor fit]"
8,CCc1nc2c(OCc3ccc(Cl)cc3Cl)cccn2c1N(C)C(=O)C1CC1,"inconclusive: 15.8 µM [inhibitor, single point]"
9,Cc1nnc(N2CCCC(C(=O)Nc3ccccc3C(F)(F)F)C2)c2nn(-c3ccccc3)c(C)c12 (stereo not given),"inconclusive: 17.8 µM [inhibitor, partial curve, poor fit]"
10,COC(=O)[C@@]12OC[C@]34[C@H]([C@@H](O)[C@@H]1O)[C@@]1(C)C(=O)C(O[C@@H]5OC(CO)[C@@H](O)[C@@H](O)[C@@H]5O)=C[C@@H](C)[C@@H]1C[C@H]3OC(=O)[C@H](OC(=O)/C=C(\C)C(C)(C)OC(C)=O)[C@@H]24 (stereo not given in full),"inconclusive: 37.7 µM [inhibitor, single point]"
11,CCCCCc1cc(=O)oc2c(C(CCN(CC)CC)c3ccc(N(C)C)cc3)c(OC)cc(OC)c12 (stereo not given),"inconclusive: 35.5 µM [inhibitor, single point]"
12,Cc1ccc(NC(=S)NCCN(C2CCCCC2)C2CCCC2)cc1C,"inconclusive: 20 µM [inhibitor, partial curve, poor fit]"
13,CCCCCCN1C[C@H](n2cc(C3CC3)nn2)[C@@H](O)C[C@@H]1c1ccc(OC)cc1,"inconclusive: 39.8 µM [inhibitor, single point]"
14,CCOc1ccccc1N1CC(c2nc3ccccc3n2CCOc2ccc(OC)cc2)CC1=O (stereo not given),"inconclusive: 22.4 µM [inhibitor, single point]"
15,CCCCn1c(N)c(N(CC(C)C)C(=O)c2ccc(S(=O)(=O)N3CCCCCC3)cc2)c(=O)[nH]c1=O,inactive
16,O=C(NCCc1csc(-c2cccnc2)n1)c1ccc(Cl)cc1,inactive
17,O=C(Nc1ccccn1)c1cc2ccccc2o1,active: 15.8 µM
18,COc1cc(C(CCN2CCCC(C)C2)c2c(OC)cc(OC)c3c(-c4ccccc4)cc(=O)oc23)cc(OC)c1OC (stereo not given),"inconclusive: 39.8 µM [inhibitor, single point]"
19,CCCCCCC(=O)N(O)C1CC(=O)N(c2ccc(Cl)cc2)C1=O (stereo not given),inactive
20,Cc1cccc(CS(=O)(=O)c2ncc(Cl)c(C(=O)Nc3ccc(F)cc3)n2)c1,"inconclusive: 39.8 µM [inhibitor, single point]"
21,CN1C/C(=C\c2ccc(N3CCOCC3)cc2)C(=O)/C(=C/c2ccc(N3CCOCC3)cc2)C1,"inconclusive: 31.6 µM [inhibitor, single point]"
22,Cc1ccc(Nc2nc(NCC3CC3)nc3ccsc23)c(C)c1,"inconclusive: 28.2 µM [inhibitor, partial curve]"

row,SMILES,Potency
1,COc1cc(-c2cc(C(=O)Nc3c(Cl)cc(Cl)cc3Cl)c3ccccc3n2)cc(OC)c1OC,inactive
2,CCCCCCCCCCn1c2c(c(=N)c3c1CCC3)CCC2,"inconclusive: 2.51 µM [inhibitor, full curve, poor fit]"
3,CCN(CC)C(=O)C1=C(C)N(CCC2=CCCCC2)C(=O)C(CC(=O)NC(c2ccccc2)c2ccccc2)C1 (stereo not given),"inconclusive: 39.8 µM [inhibitor, partial curve, poor fit]"
4,COc1ccc(CNC(=O)c2ccc3c(c2)N(Cc2ccccc2F)C(=O)c2ccccc2S3=O)cc1 (stereo not given),inactive
5,CC1=CC(=O)C=C(C)C1=NOS(=O)(=O)c1ccccc1,"inconclusive: 17.8 µM [inhibitor, partial curve]"
6,COCCCN1C(=O)C(=O)/C(=C(/O)c2ccc(S(=O)(=O)N3CCOCC3)cc2)C1c1ccc(OC)cc1 (stereo not given),inactive
7,CC1(C(=O)Nc2cccc3cccnc23)CCN1Cc1cccc2c1OCO2 (stereo not given),active: 6.31 µM
8,COC(=O)c1cc2oc3ccccc3c2n1Cc1nc(-c2cccc(Cl)c2)oc1C,inactive
9,O=C1NC[C@@H](c2ccccc2)OC(=O)[C@@H](Cc2ccc(F)cc2)CC/C=C/C[C@H]1CC(=O)N(CCO)Cc1ccccc1,"inconclusive: 39.8 µM [inhibitor, single point]"
10,O=C(Nc1ccc(O)cc1)c1ccc(NC(=O)c2cccs2)cc1,"inconclusive: 39.8 µM [inhibitor, partial curve, poor fit]"
11,C=CCn1c(CSc2ccccc2[N+](=O)[O-])n[nH]c1=S,inactive
12,Cc1cccc(-c2ccc(C=Nc3c(C)n(C)n(-c4ccccc4)c3=O)o2)c1,"inconclusive: 25.1 µM [inhibitor, single point]"
13,Cc1ccc(N(C(=O)Cn2nnc(-c3ccc(F)cc3)n2)C(C(=O)NC(C)(C)C)c2ccncc2)cc1 (stereo not given),inactive
14,CCN(CC)S(=O)(=O)c1cccc(C(=O)NC2CCCCC2)c1,inactive
15,COc1ccc(Cn2cc(C(=O)c3ccc(Cl)cc3)c(=O)c3cc4c(cc32)OCO4)cc1,"inconclusive: 15.8 µM [inhibitor, partial curve, poor fit]"
16,O=C(CN1CCOCC1)Nc1ccc(N2CCN(c3ccccc3)CC2)c(F)c1,"inconclusive: 2.12 µM [inhibitor, partial curve, poor fit]"
17,CN(C)CC(c1ccccc1)c1ccccc1,inactive
18,COC(=O)c1ccc(NCc2cc(O)ccc2O)cc1O,"inconclusive: 39.8 µM [inhibitor, single point]"
19,C/C(=N\NC(=O)C(C)Oc1ccc([N+](=O)[O-])cc1)c1ccccn1 (stereo not given),"inconclusive: 3.16 µM [inhibitor, full curve, poor fit]"
20,NNC(=O)COc1cccc2cccnc12,inactive
21,CC(NC(=O)CN(c1cccc(C(F)(F)F)c1)S(=O)(=O)c1ccc(Cl)c([N+](=O)[O-])c1)c1ccccc1 (stereo not given),"inconclusive: 37.7 µM [inhibitor, single point]"
